Data on 100 molecules can be found in publication PMC6919601, “Identification of Plasmodium dipeptidyl aminopeptidase allosteric inhibitors by high throughput screening” (PLoS ONE, 2019).

In all, about 110,000 compounds went through this assay and about 230 (0.21%) showed an effect of 50% or more. The list shows a part of the results.
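Also: 30 min substrate incubation versus DMSO and 10 µM JCP410 controls.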

Sequence of DPAP1 (Q8IIJ9 whole entry, looked up): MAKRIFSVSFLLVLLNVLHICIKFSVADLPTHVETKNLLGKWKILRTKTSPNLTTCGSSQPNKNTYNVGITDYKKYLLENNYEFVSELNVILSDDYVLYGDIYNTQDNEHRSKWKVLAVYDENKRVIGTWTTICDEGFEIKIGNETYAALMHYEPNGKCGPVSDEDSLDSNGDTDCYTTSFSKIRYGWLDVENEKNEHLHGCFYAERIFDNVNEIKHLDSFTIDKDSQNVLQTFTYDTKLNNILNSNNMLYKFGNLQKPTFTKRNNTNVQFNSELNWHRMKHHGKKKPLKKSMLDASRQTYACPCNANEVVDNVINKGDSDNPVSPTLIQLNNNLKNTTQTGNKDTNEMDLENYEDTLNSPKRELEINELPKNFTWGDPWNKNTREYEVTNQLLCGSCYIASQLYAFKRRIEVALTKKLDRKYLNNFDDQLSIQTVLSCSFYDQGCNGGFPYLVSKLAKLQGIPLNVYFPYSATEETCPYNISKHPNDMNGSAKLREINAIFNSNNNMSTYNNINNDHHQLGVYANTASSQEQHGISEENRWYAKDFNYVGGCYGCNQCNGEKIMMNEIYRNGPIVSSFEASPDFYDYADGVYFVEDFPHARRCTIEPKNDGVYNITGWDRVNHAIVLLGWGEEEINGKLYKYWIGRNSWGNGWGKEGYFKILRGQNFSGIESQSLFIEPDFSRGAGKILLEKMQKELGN

This assay addresses DPAP1 (Plasmodium falciparum, UniProt Q8IIJ9). As to the kind of experiment: primary screen, percent inhibition; read by cleavage of a fluorogenic dipeptide substrate; higher = more effect of the substance. More on the design: species or system P. falciparum D10 trophozoite lysates; single well.
Consider `O=C(NCCc1c[nH]c2ccccc12)c1ccc(C(F)(F)F)cc1`, for which the “% Inhibition @ 10 uM” value is -1.22%. In the case of `Cc1ccc(Nc2nc(-c3ccc(S(=O)(=O)N4CCOCC4)cc3)cs2)cc1`, the “% Inhibition @ 10 uM” value was -0.693%. Then `Cc1ccc(NC2=NC(=O)C(CC(=O)Nc3ccccc3F)S2)cc1Cl` (stereo not shown), with -1.38%; and `N#CCNC(=O)[C@H](COCc1ccccc1)NC(=O)c1ccccc1`, with 2.86%; and `CN(CCCNC(=O)c1ccc(CS(=O)(=O)Cc2cccc(Cl)c2)o1)C1CCCCC1`, with 3.93%.

On to `C=CCc1ccccc1OCC(O)CN1CCC(C)CC1` (stereo not shown), for which the “% Inhibition @ 10 uM” value was 3.01%. Take `CC1(C)CC2=NC3=C(C(=O)c4ccccc43)C(c3ccccc3C(F)(F)F)C2=C(O)C1` (stereo not shown): the “% Inhibition @ 10 uM” value is 0.9%.

As for `CCc1ccc(C(=O)O/N=C(\N)c2ccccn2)cc1`, the “% Inhibition @ 10 uM” value worked out at 3.94%. Take `CCOC(=O)c1c(Cc2cccc(C(F)(F)F)c2)c[nH]c1C`: the “% Inhibition @ 10 uM” value amounted to 2.77%. In the case of `Cc1onc(-c2ccccc2)c1C(=O)Nc1cccc(NC(=O)c2c(-c3ccccc3)noc2C)c1`, the “% Inhibition @ 10 uM” value is on record as -1.42%.

Take `CC1CCN(CC(O)COc2ccc(C34CC5CC(CC(C5)C3)C4)cc2)CC1` (stereo not shown): the “% Inhibition @ 10 uM” value was 5.61%. For the molecule `CC(CCc1ccccc1)NC(=O)c1cc2c(s1)CS(=O)(=O)C2` (stereo not shown), the “% Inhibition @ 10 uM” value is on record as -7.3%.

Regarding `COc1ccccc1CNC(=O)c1cccs1`, the “% Inhibition @ 10 uM” value is reported as -2.36%. With `c1ccc2c(c1)COC(CN1CCOCC1)OC2`, the “% Inhibition @ 10 uM” value is -4.67%. Then `O=C(NCCCn1ccnc1)/C(=C/c1cccs1)NC(=O)c1ccco1`, with 0.484%; and `CCc1nn(CC(=O)NCC2CCCO2)c(=O)c2cc3ccccc3n12` (stereo not shown), with 3%; and `COc1ccc(C(=N)NOC(=O)CCc2ccccc2)cc1`, with -1.4%. For `CCOc1ccc(OCC)c(S(=O)(=O)n2cc(C)nc2CC)c1`, the “% Inhibition @ 10 uM” value was determined as 6.51%. Then `COC(=O)c1ccc(CN2CCC(Cc3ccccc3)CC2)cc1`, with -0.0648%; and `O=C(CN1CCCCC1)N1CCN(c2ccc3ccccc3n2)CC1`, with -6.83%; and `Clc1ccc(OCCCN2CCCC2)cc1`, with 3.35%.

For `CCOc1ccc(C(CC(=O)O)n2cnnn2)cc1OC` (stereo not shown), the “% Inhibition @ 10 uM” value stood at 2.99%.

Regarding `Cc1ccc(C(=O)NC(=O)CSc2ncccc2C(=O)O)cc1`, the “% Inhibition @ 10 uM” value is 5.49%. For `CC(C)n1cnc2cc(NC(=O)c3ccco3)ccc21` the value was -3.45%.

Regarding `O=C(NCc1cccnc1)c1ccc(CS(=O)(=O)c2ccc(Br)cc2)o1`, the “% Inhibition @ 10 uM” value is 2.14%.

Turning to `OCCN(CCO)Cc1ccccc1`, the “% Inhibition @ 10 uM” value is -0.603%. `CC(NC(=O)Cn1ncc2ccsc2c1=O)c1ccc2c(c1)OCCO2` (stereo not shown): the “% Inhibition @ 10 uM” value is recorded as -10.4%.

`O=C(Cn1ncc2c1-c1ccccc1OC2)N1CCN(C(=O)c2ccco2)CC1`: the “% Inhibition @ 10 uM” value was 0.981%. Then `O=c1c2cnc(NCc3cccnc3)nc2ccn1Cc1cccnc1`, with -2.83%.

Consider `O=c1cc(-c2ccccc2)nc2n1N=C(c1ccccc1)C2`, for which the “% Inhibition @ 10 uM” value is -2.78%.

Take `CCC(C(=O)NCCc1ccco1)n1nc(C)c2sc3ccccc3c2c1=O` (stereo not shown): the “% Inhibition @ 10 uM” value stood at 1.63%.

Turning to `CCCC(=O)Nc1ccc(Cl)c(NC(=O)c2ccc3ccccc3c2)c1`, the “% Inhibition @ 10 uM” value is listed as -0.469%. In the case of `COc1ccc(S(=O)(=O)N(C)CC(=O)Nc2cccc(F)c2)cc1`, the “% Inhibition @ 10 uM” value worked out at 4.22%. With `O=P1(O)COc2ccccc2OC1`, the “% Inhibition @ 10 uM” value is on record as -0.178%. Consider `Cc1ccc(CSc2nc3ccncc3n2Cc2ccc(C(=O)N3CCN(C)CC3)cc2)cc1`, for which the “% Inhibition @ 10 uM” value was 19.8%.

For `COc1ccc2nc(NC(=O)CSc3nc4ccccc4o3)sc2c1`, the “% Inhibition @ 10 uM” value is -3.49%. As for `Cc1nn(C2CCOC(C)(C)C2)c2c1C(c1ccc(OCc3ccccc3)cc1)SCC(=O)N2` (stereo not shown), the “% Inhibition @ 10 uM” value came out at 6.01%.

For the molecule `Cc1cc(O)nc(-n2nc(C)cc2C)n1`, the “% Inhibition @ 10 uM” value is recorded as -4.15%. Then `COc1ccc(C(C)=O)cc1CSc1nnc(C(O)c2ccccc2)n1-c1ccccc1` (stereo not shown), with 0.503%; and `N#Cc1cn(CC(=O)N2CCCCCC2)c2ccc(Br)cc12`, with -0.105%; and `CCN(C(=O)CCc1ccccc1)c1nc(-c2ccccc2)cs1`, with -0.426%. Then `COc1ccc2ccccc2c1/C=C1\N=C(c2ccc(F)cc2)OC1=O`, with -5.6%; and `CN1CCN(CC(=O)N2c3ccccc3C(C)(c3ccccc3)CC2(C)C)CC1` (stereo not shown), with 3.76%.

Consider `Cc1oc2c(c(C)cc3oc(=O)cc(C)c32)c1C`, for which the “% Inhibition @ 10 uM” value stood at 5.35%.

For the molecule `Cc1ccc(C(C)C)c(OCC(=O)Nc2cccc([N+](=O)[O-])c2)c1`, the “% Inhibition @ 10 uM” value was -0.0267%.

For the molecule `Cc1cccn2c(=O)c3cc(C#N)c(=O)n(-c4nccs4)c3nc12`, the “% Inhibition @ 10 uM” value stood at 1.12%. For `Cc1cc(C(F)(F)F)nn1C(=O)COc1ccccc1Br` the value was -2.9%; for `N#Cc1c(-n2ncnc2-c2cccc(Cl)c2Cl)sc2c1CCCCC2`, -4.32%; for `Cc1ccc(S(=O)(=O)Nc2c(O)oc3ccccc3c2=O)c(C)c1`, -0.0709%.

On to `COc1ccc(C(=O)C2=C(O)C(=O)N(Cc3cccnc3)C2c2ccc(C)cc2)cc1` (stereo not shown), for which the “% Inhibition @ 10 uM” value is listed as 0.487%. For `CCOC(=O)C1=CN(C(C)C)C=C(C(=O)OCC)C1c1ccc(OC)c(OC)c1OC` the value was -1.69%; for `Cn1c(=O)n(C)c2cc(/C=C3/SC(=O)N(CC(=O)N4CCCCC4)C3=O)ccc21`, 10.8%.

Turning to `CC1(C)CC(O)=C(C(=S)Nc2ccccc2)/C(=N/C2CC(C)(C)NC(C)(C)C2)C1`, the “% Inhibition @ 10 uM” value is 1.37%. Take `CN(C)CCNC(=O)Cn1nc(Cc2cccnc2)c2ccccc2c1=O`: the “% Inhibition @ 10 uM” value is -2.92%. Then `COC(=O)c1ccc(-c2ccco2)n1CC(=O)NCc1ccc(OC)cc1`, with 2.86%; and `CC(=O)N1N=C(c2ccccc2)OC1(C)C12CC3CC(CC(C3)C1)C2` (stereo not shown), with -0.0678%. For `O=C(Cn1c2ccccc2c2cnnc(O)c21)NC1CCN(Cc2ccccc2)CC1`, the “% Inhibition @ 10 uM” value is 1.38%. For `COc1cc2c(cc1OC)C(O)C(C)(C)N(CCC(c1ccccc1)c1ccccc1)C2` (stereo not shown) the value was -6.29%; for `OC1=C2C(=Nc3nc(-c4cccc(O)c4)nn3C2c2ccccc2Cl)CCC1` (stereo not shown), 3.59%. With `O=c1c2ccccc2nc(Cc2ccccc2)n1-c1ccccc1O`, the “% Inhibition @ 10 uM” value came to 0.812%. Turning to `CN(Cc1ccccc1)Cc1ccco1`, the “% Inhibition @ 10 uM” value is -7.93%. On to `COc1cc(/C=C2\S/C(=N/c3ccc(Cl)c(C(=O)O)c3)N(C)C2=O)cc(OC)c1OC`, for which the “% Inhibition @ 10 uM” value is 3.83%. Then `O=C(Nc1cccc(C(F)(F)F)c1)c1ccc([N+](=O)[O-])o1`, with 1.9%; and `O=C(Nc1ccc(F)cc1)c1cccc(Br)c1`, with 7.65%.

With `CC(=O)c1ccc(C(=O)N(CCN(C)C)c2nc3c(Cl)cccc3s2)cc1`, the “% Inhibition @ 10 uM” value was 0.693%.

As for `O=C(O)CCCCc1cc2c(s1)CCCC(=O)N2`, the “% Inhibition @ 10 uM” value is recorded as 2.33%. Then `O=C(O)CCSc1nc2c(cnn2-c2ccccc2)c(=O)n1-c1ccccc1`, with 2.32%; and `CCC(C(=O)Nc1nc2nccc(C)n2n1)c1ccccc1` (stereo not shown), with -1.31%.

For `NC1=NC(=O)/C(=C/c2cn(CCC(=O)O)nc2-c2ccc(F)cc2)S1`, the “% Inhibition @ 10 uM” value is 2.46%. As for `COc1ccc(CN2CCN(Cc3ccccc3C)CC2)cc1OC`, the “% Inhibition @ 10 uM” value is given as -0.251%.

`Cc1ccc(-c2cn3c(n2)sc2cc(C(=O)NCCCN4CCOCC4)ccc23)cc1`: the “% Inhibition @ 10 uM” value is recorded as 5.11%.

As to `Cc1ccccc1-n1nc2c(c1NC(=O)CCC1CCCCC1)CS(=O)(=O)C2`, the “% Inhibition @ 10 uM” value worked out at 3.37%.

`COc1ccccc1N1CCN(S(=O)(=O)c2ccc(C(C)(C)C)cc2)CC1`: the “% Inhibition @ 10 uM” value was -17.2%. For `COCCCNC(=O)c1cc(-c2ccc(F)cc2)[nH]c1C` the value was 3.64%. Then `CCOc1ccc(C2CC(=O)Nc3c2c(=O)nc(SCc2ccc(C)cc2)n3C)cc1OC` (stereo not shown), with -1.11%; and `Cc1cc(-c2cccc([N+](=O)[O-])c2)nc2ccc3ccccc3c12`, with -2.47%.

For `CC(C)Oc1ccccc1NC(=O)CSCC(=O)Nc1ccc2ccccc2c1`, the “% Inhibition @ 10 uM” value is -2.07%.

In the case of `COc1cc(C(=O)NC2=NC(=O)CC(c3ccccc3Cl)N2)cc(OC)c1OC` (stereo not shown), the “% Inhibition @ 10 uM” value is on record as -7.18%.

As to `CCOc1ccc(NC(=O)c2ccc(Br)cc2)cc1`, the “% Inhibition @ 10 uM” value is recorded as -2%. For `CC1CCCCN1C(=O)Cn1ncc2c1-c1ccccc1OC2` (stereo not shown), the “% Inhibition @ 10 uM” value was -1.66%. Then `CN1CCN(C(=O)C(Sc2ccccc2)c2ccccc2)CC1` (stereo not shown), with 1.64%; and `COc1ccc(OC)c(NC(=O)CN(c2ccc(C(C)C)cc2)S(C)(=O)=O)c1`, with -10.8%. Then `COc1ccc(C2CC(c3c(F)cccc3Cl)n3nnnc3N2)cc1` (stereo not shown), with 3.32%; and `CC1(C)CC2=Nc3nc(-c4ccccc4)nn3C(c3ccc(F)cc3)C2=C(O)C1` (stereo not shown), with 0.674%. As for `CCOC(=O)c1cnc2c(C(F)(F)F)cccc2c1N1CCN(C)CC1`, the “% Inhibition @ 10 uM” value is listed as -0.169%. Then `COCC(C)NC(=O)c1onc(C)c1Cl` (stereo not shown), with -9.31%; and `COc1cc(CNC(C)(C)CO)cc(Cl)c1OCC(N)=O`, with -4.93%.

With `Cc1ccccc1CNc1nc2ccccc2n1C`, the “% Inhibition @ 10 uM” value turned out to be 6.31%. Then `Cc1cc(O)c(NC(=O)c2ccccc2Cl)cc1C`, with -2.44%; and `CC(C)NC(=O)C1CCCN(c2nn3cc(-c4ccc(F)cc4)nc3s2)C1` (stereo not shown), with 5.38%; and `COc1ccc(OC)c(-c2nnc3n(Cc4ccc(F)cc4)c(=O)c4ccccc4n23)c1`, with -1.72%. For `CC1=C(C)CC2C(=O)N(c3cccc(C(=O)O)c3)C(=O)C2C1` (stereo not shown) the value was 7.35%. For `CNC(=O)C1CCCN(c2nnc(-n3c(C)ccc3C)s2)C1` (stereo not shown) the value was -0.637%. Turning to `COc1ccc(-c2cc(C(=O)N3CCCCC3)c3c(-c4ccc(F)cc4)[nH]nc3n2)cc1OC`, the “% Inhibition @ 10 uM” value came to 1.37%. `COc1ccc(S(=O)(=O)Nc2ccc(N3CCOCC3)cc2)cc1`: the “% Inhibition @ 10 uM” value is recorded as -1.05%. For `CCOC(=O)C1=C(C)N(C)C(C)=C(C(=O)OCC)C1c1ccccc1F` the value was -3.44%; for `Cc1cccc(CC(=O)NCCn2ccc3ccccc32)c1`, -2.87%. Turning to `N#CCNC(=O)C(Cc1cccc(Br)c1)CS(=O)(=O)Cc1ccccc1` (stereo not shown), the “% Inhibition @ 10 uM” value is given as -1.83%.

As to `NS(=O)(=O)c1ccc(CCNC(=O)CCc2nc(O)c3c4c(sc3n2)CCCC4)cc1`, the “% Inhibition @ 10 uM” value is reported as -3.27%. Regarding `C=CCSC1=C(C#N)C2(CCCC2)C(C#N)C(=O)N1` (stereo not shown), the “% Inhibition @ 10 uM” value is -0.736%.
